From publication PMC4336329 (PLoS ONE, 2015)
Among all 310,000 compounds or so, about 14,000 (4.5%) showed an effect of 50% or more. The effect is printed as a negative number. Some of the results follow. Where a SMILES comes first, the peptide text is derived from it. The star is where a group is joined. Boc = CC(C)(C)OC(=O)*

molecular target: human ether-à-go-go-related gene (hERG) potassium channel (human, UniProt Q12809); test: primary screen, population patch clamp on CHO cells stably expressing hERG
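Further: peak tail current of the secondary pulse compared with the same well before compound.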

human ether-à-go-go-related gene (hERG) potassium channel, sequence (Q12809 whole entry, looked up): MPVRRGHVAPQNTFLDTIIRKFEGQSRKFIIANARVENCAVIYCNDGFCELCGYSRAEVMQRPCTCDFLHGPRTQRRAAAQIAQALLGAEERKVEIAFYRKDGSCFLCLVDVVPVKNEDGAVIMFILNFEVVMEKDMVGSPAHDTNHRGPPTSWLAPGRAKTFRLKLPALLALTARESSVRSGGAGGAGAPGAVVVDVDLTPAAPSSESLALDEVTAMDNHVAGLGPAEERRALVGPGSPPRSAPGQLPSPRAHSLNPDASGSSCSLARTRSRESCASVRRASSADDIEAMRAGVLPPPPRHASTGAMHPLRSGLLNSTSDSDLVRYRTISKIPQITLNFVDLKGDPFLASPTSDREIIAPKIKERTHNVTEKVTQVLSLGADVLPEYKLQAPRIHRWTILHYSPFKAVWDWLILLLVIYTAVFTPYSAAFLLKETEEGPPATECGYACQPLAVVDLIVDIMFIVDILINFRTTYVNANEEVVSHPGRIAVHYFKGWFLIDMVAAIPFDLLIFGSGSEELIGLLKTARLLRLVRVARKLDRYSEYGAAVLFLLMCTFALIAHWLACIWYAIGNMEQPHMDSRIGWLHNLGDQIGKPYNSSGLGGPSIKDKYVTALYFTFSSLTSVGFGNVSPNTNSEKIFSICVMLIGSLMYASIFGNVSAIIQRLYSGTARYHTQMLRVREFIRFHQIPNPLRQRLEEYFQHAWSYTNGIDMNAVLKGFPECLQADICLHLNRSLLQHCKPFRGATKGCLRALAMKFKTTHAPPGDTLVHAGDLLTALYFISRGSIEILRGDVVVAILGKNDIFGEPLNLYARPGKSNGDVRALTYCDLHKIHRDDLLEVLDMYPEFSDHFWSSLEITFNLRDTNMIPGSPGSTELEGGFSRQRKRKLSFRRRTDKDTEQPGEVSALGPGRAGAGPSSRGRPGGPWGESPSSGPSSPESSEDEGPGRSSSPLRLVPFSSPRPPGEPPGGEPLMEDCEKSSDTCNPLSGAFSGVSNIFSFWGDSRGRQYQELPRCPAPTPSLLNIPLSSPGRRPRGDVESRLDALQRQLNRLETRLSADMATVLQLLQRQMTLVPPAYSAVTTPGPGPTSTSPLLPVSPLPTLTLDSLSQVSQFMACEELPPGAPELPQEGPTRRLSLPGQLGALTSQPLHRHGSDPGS

SMILES | hERG current change (%, negative = inhibition) at 10uM [%]
CCOc1ccc(C2=CSC3=NCCN23)cc1 | -4.08
CC(C)CCn1c(N2CCN(c3cccc(Cl)c3)CC2)nc2c1c(=O)[nH]c(=O)n2C | -34.8
COc1ccc(-c2ccc([C@H]3[C@H]4C=CC[C@@H](C)[C@@H]4C(=O)N3Cc3ccccc3)c(F)c2)cc1 | 9.16
COc1ccccc1-c1ccc(SCC(=O)NC2CCCCC2)nn1 | -72
CCOC(=O)Cn1ncc(-c2ccccc2)c1N | 0.943
CCCNS(=O)(=O)c1ccc(OCC(=O)Nc2ccccc2F)cc1 | -43
CCOC(=O)c1c(C)[nH]c(C(=O)OC/C(O)=C(\C#N)c2nc3ccccc3[nH]2)c1C | -2.01
C=CCn1c(COc2ccc(Cl)cc2)nnc1SCC(=O)NCC(=O)OCC | -31.4
CCOC(=O)c1c(-c2ccc(F)cc2)csc1NC(=O)C1CC=CCC1C(=O)O (stereo not shown) | -22.3
CCOc1ccc(N2CC(C(=O)NCc3ccccc3)CC2=O)cc1 (stereo not shown) | -12.3
CC(=O)Nc1ccc(S(=O)(=O)Oc2cccc(/C=C3\SC(N)=NC3=O)c2)cc1 | 11.7
Cc1cccc(-n2c(C)cc(C(=O)NC3CCCCC3)c2C)c1 | -32.7
C/C(=N/NS(=O)(=O)c1ccc(F)cc1)c1ccc(NC(=O)c2ccc(C)o2)cc1 | 1.86
O=C(c1cc(NC(=O)C23CC4CC(CC(C4)C2)C3)cc(NC(=O)C23CC4CC(CC(C4)C2)C3)c1)N1CCCCC1 | 15.8
CCOC(=O)CC1COCCN1C(=O)c1ccc2oc(Cc3ccccc3)nc2c1 (stereo not shown) | 1.91
CCOC(=O)CCC(=O)Nc1ccc(S(=O)(=O)N2CCC(C)CC2)cc1 | -6.28
CC1=CCC(C(=O)O)C(C(=O)Nc2ccc(-c3nc4ccc(C)cc4s3)cc2)C1 (stereo not shown) | 7.8
O=C(CN(C(=O)CCC(=O)Nc1nccs1)c1ccc(F)cc1)NCCc1ccccc1 | 25
CCCN1C(=O)/C(=C2\SC(=S)N(c3c(C)n(C)n(-c4ccccc4)c3=O)C2=O)c2ccccc21 | 9.17
COCCNC(=O)c1ccc(C)c(S(=O)(=O)Nc2ccc(C)cc2)c1 | 9.68
S=C(N/N=C/c1ccco1)NC1CC2CCC1C2 (stereo not shown) | -27.3
Cc1ccc(NC(=O)CSCC(=O)NNC(=O)c2ccoc2C)cc1 | -8.6
CCCCNC(=O)CCNC(=O)c1ccc(C(C)(C)C)cc1 | -6.39
O=C(CN1CCN(Cc2ccccc2)CC1)Nc1cccc(C(F)(F)F)c1 | -71.6
CCNc1nc(SC(C)C(=O)OC)nc(N(C)C)n1 (stereo not shown) | 12.6
O=C(Cc1ccccc1)NNC(=O)c1ccccc1C(=O)O | -5.66
O=C(NCc1cccnc1)c1cccc(S(=O)(=O)NCc2ccccc2)c1 | -35.2
CCOC(=O)Cn1nc(C)c(NC(=O)COc2ccc([N+](=O)[O-])cc2)c1C | -40.6

SMILES | hERG current change (%, negative = inhibition) at 10uM [%]
COc1ccc2cc(C(=O)C3CCCN(C(=O)CSc4nnc(C)o4)C3)ccc2c1 (stereo not shown) | -17.2
BrCCOCCOc1ccc2ccccc2c1 | 14.4
O=C(O)Cc1n[nH]c(=O)c2ccccc12 | 16.1
CCOC(=O)c1sc(NC(=O)CSc2nnnn2-c2ccccc2)nc1C | -8.25
COc1ccc(/C=C/C(=O)Nc2cccc(C(C)=O)c2)cc1 | -11.5
CCOc1ccccc1N1C(=O)c2cccnc2C1=O | 19.5
NS(=O)(=O)c1ccc(CNc2nc(-c3cccnc3)nc3ccccc23)cc1 | 14.4
COc1cccc2cc(C(=O)C3=C(O)C(=O)N(CCN4CCOCC4)C3c3cccs3)oc12 (stereo not shown) | 13.1
COc1ccc(CN2C(=O)c3cccnc3C2=O)cc1S(=O)(=O)NC1CCCCC1C (stereo not shown) | 10.8
Cn1c(=O)[nH]c(=O)c2c1nc(N1CCCCCC1)n2CC(N)=O | 15.2
O=C(COC(=O)Cc1ccccc1)NNC(=O)c1ccc([N+](=O)[O-])cc1 | -12.6
COc1cc(/C=N/NC(=O)Nc2ccccc2)ccc1OCCOc1ccccc1C | 7.75
O=C(COC(=O)/C=C/c1cccc(F)c1)Nc1ccccc1-c1ccccc1 | 8.48
COc1ccc(-n2cnc3ccccc3c2=O)c([N+](=O)[O-])c1 | 10.1
CC(C)OC(=O)CSc1nc2cccnc2n1C1CCCCC1 | -3.79
CCCCOc1nc2ccccc2nc1NS(=O)(=O)c1ccc(F)cc1 | -5.01
CCC(C)C(NC(=O)OC(C)(C)C)C(=O)NC(Cc1ccccc1)C(=O)OC (stereo not drawn) (Boc-Ile-Phe-OMe; configuration not given here) | -6.13
CCCCNC(=O)C1COc2ccccc2O1 (stereo not shown) | 6.72
Cc1ccc(C(=O)N2NC(c3ccccc3F)C3C(=O)N(c4cccc(C)c4)C(=O)C32)cc1 (stereo not shown) | 1.87
O=C1CC(N(C(=O)c2ccco2)c2ccc(F)cc2)C(=O)N1c1ccc(F)cc1 (stereo not shown) | -3.79
Cc1cccc(C)c1N(CC(=O)N(C)Cc1ccccc1)S(C)(=O)=O | 3.99
C=CCNC(=S)N1CCN(CCN=CC2=C(O)CC(c3ccc(Cl)cc3)CC2=O)CC1 (stereo not shown) | -66.4
O=C1OCc2ccc(NS(=O)(=O)c3ccc(C(F)(F)F)cc3)cc21 | 10.4
CCOC(=O)CC1C(=O)NCCN1C1CCCC1 (stereo not shown) | 10.3
COc1ccc(OC(C)C(=O)NCC2CCCO2)cc1 (stereo not shown) | 18.5
NC(=O)C1(N2CCCCC2)CCN(C(=S)Nc2ccccc2)CC1 | -5.2
CCCCc1ccc(NC(=S)Nc2ccc(Cl)c(S(=O)(=O)N(C)C)c2)cc1 | 19
